According to the supplement of paper PMC10126150:
Sequences with one replicate were seen in a single cluster, so their values are uncertain.

System: ATP
Assay: switch fluorescence ratio, 500 uM ATP over buffer (Cy3 cluster intensity, sum of 5 cycles each) (fold (ratio)); higher = stronger signal-on switching upon ATP binding; sequences stand for … in TCGTCGGCAGCGTCAGATGTGTATAAGAGACAGTTTTTTTTTTTTTTTTTTTTTTTTT…TC
Details: aptamer strand: ATP DNA aptamer (quencher-CACCTGGGGGAGTATTGCGGAGGAAGG + anchor), 100 nM annealed; ATP concentration: 500 uM; one replicate
Procedure, shortened: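 Clusters carrying Cy3-labelled switching strands on a modified Illumina MiSeq flow-cell were annealed to 100 nM quencher-labelled ATP aptamer and imaged in selection buffer. They were imaged again after 15 min with 500 uM ATP at 22 °C, over five buffer/ATP cycles with NaOH stripping and re-annealing in between. For each cluster, the fluorescence ratio is the summed Cy3 intensity of the target cycles divided by that of the buffer cycles, averaged per switch-domain sequence. Clusters outside 100-1000 RFU were left out.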
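Also: ATP exposure 15 min at 22 °C before imaging.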

| Sequence | switch fluorescence ratio |
| --- | --- |
| AATAGATGCG | 1.03 |
| AATAGGAGAA | 1.02 |
| AATAGGTGGA | 1.02 |
| AATAGGTGTA | 1.07 |
| AATAGGTTT | 0.998 |
| AATAGTTTGC | 0.98 |
| AATAGTTTGT | 0.976 |
| AATATAAAAT | 0.989 |
| AATATATGAT | 0.949 |
| AATATCAAGT | 0.989 |
| AATATCATTT | 0.99 |
| AATATCCCAA | 1.03 |
| AATATCCGGG | 1.01 |
| AATATGGTGT | 1 |
| AATATGTCT | 1 |
| AATATTATTC | 1.04 |
| AATATTTTAA | 1.01 |
| AATCAAGAGA | 0.945 |
| AATCAAGTA | 0.997 |
| AATCAATAGC | 1.02 |
| AATCAATTAG | 0.941 |
| AATCAATTTC | 0.96 |
| AATCACTCGA | 0.978 |
| AATCAGGACT | 0.976 |
| AATCATGACT | 1.02 |
| AATCATGTTT | 0.947 |

| Sequence | switch fluorescence ratio |
| --- | --- |
| AATCATTCTT | 1.01 |
| AATCCAGAAT | 0.956 |
| AATCCAGGAG | 1 |
| AATCCATTCA | 1.07 |
| AATCCCGGCG | 1.03 |
| AATCGAAAG | 1.02 |
| AATCGACAGT | 1.01 |
| AATCGACGTC | 1.05 |
| AATCGATTGT | 1.01 |
| AATCGATTTA | 0.986 |
| AATCGCACAG | 1.08 |
| AATCGCTCTA | 0.973 |
| AATCGGACTT | 0.961 |
| AATCGGCCA | 1.04 |
| AATCGTGCAG | 0.987 |
| AATCTAGCCA | 0.952 |
| AATCTCACAG | 1.03 |
| AATCTCCAAA | 1.04 |
| AATCTGCATC | 1.71 |
| AATCTGGATA | 0.996 |
| AATCTGGTTC | 1.04 |
| AATCTGGTTT | 1.01 |
| AATCTTGAGA | 0.944 |
| AATCTTGTTC | 1.02 |
| AATGAATAA | 1 |
| AATGACCTCT | 0.994 |

| Sequence | switch fluorescence ratio |
| --- | --- |
| AATGAGCCGA | 1.04 |
| AATGATCCGT | 1.02 |
| AATGATCGAT | 1.03 |
| AATGCCGAGG | 0.991 |
| AATGCCGTTA | 1.01 |
| AATGCCTTGG | 1.03 |
| AATGCGGAAC | 1.03 |
| AATGCGTATA | 1.02 |
| AATGCTCGTG | 1.08 |
| AATGGAAGT | 1.05 |
| AATGGCCCTA | 0.999 |
| AATGGGAGGA | 1.05 |
| AATGGGGTGG | 0.97 |
| AATGGTCAGC | 0.968 |
| AATGGTGCCG | 0.998 |
| AATGGTTAAA | 0.975 |
| AATGGTTAAT | 0.99 |
| AATGTAATCG | 0.992 |
| AATGTCAATT | 0.997 |
| AATGTCCATA | 1.05 |
| AATGTCTGCG | 0.954 |
| AATGTGCCC | 1.06 |
| AATGTGGCCC | 1.04 |
| AATGTTGATG | 0.951 |
| AATGTTGTAT | 0.953 |
| AATTAAAGAA | 0.973 |

| Sequence | switch fluorescence ratio |
| --- | --- |
| AATTAATAAC | 1.01 |
| AATTACGTCG | 1.01 |
| AATTAGAACT | 1.01 |
| AATTAGGGGC | 0.957 |
| AATTAGGTCA | 0.999 |
| AATTATGCAG | 1 |
| AATTATTATA | 1.07 |
| AATTCAAGTT | 1.01 |
| AATTCAGCTT | 0.964 |
| AATTCAGTGG | 0.946 |
| AATTCATCTG | 1.05 |
| AATTCCCA | 1.01 |
| AATTCGATTA | 0.999 |
| AATTCTATCA | 0.984 |
| AATTCTGCTC | 0.974 |
| AATTGACCGT | 1.03 |
| AATTGAGATT | 0.982 |
| AATTGATCGG | 0.972 |
| AATTGATGAT | 1.01 |
| AATTGGGGAC | 0.95 |
| AATTGGGTA | 1.03 |
| AATTGTCGGG | 0.981 |
| AATTGTCTGT | 1.03 |
| AATTGTTAAG | 0.979 |
| AATTTACCAT | 1.03 |
| AATTTAGATG | 1.07 |

| Sequence | switch fluorescence ratio |
| --- | --- |
| AATTTAGG | 1.01 |
| AATTTATAGG | 1 |
| AATTTCAAAC | 1.01 |
| AATTTCACGA | 1.05 |
| AATTTCATCT | 1 |
| AATTTCTATG | 0.996 |
| AATTTCTTGG | 0.97 |
| AATTTGAGAC | 1.04 |
| AATTTGCGGA | 0.996 |
| AATTTTCAGC | 1.11 |
| AATTTTGCCC | 0.981 |
| ACAAAGCACA | 1.26 |
| ACAAAGGACT | 0.994 |
| ACAAATAAC | 0.985 |
| ACAAATACAG | 1.06 |
| ACAAATACCG | 1.02 |
| ACAAATCAAA | 1 |
| ACAAATGCT | 0.986 |
| ACAAATTGTA | 0.967 |
| ACAACGACAG | 1.03 |
| ACAACGACCG | 1.1 |
| ACAACGCCCT | 1.15 |
| ACAACTAGAC | 1.04 |
| ACAAGAAGGT | 1.01 |
| ACAAGCCAAA | 0.979 |
| ACAAGCCATT | 1.05 |

| Sequence | switch fluorescence ratio |
| --- | --- |
| ACAAGCTCCC | 1.44 |
| ACAAGCTTGG | 1 |
| ACAAGGGGTT | 1.12 |
| ACAAGGTTGT | 0.97 |
| ACAAGTCAGA | 1.01 |
| ACAAGTCGTC | 1.01 |
| ACAATAGGAA | 1.01 |
| ACAATTTTTT | 0.997 |
| ACACAGGGCA | 1.05 |
| ACACATTAC | 1.8 |
| ACACCAAGTG | 1.06 |
| ACACCCA | 1.23 |
| ACACCTAGTG | 1.02 |
| ACACCTTCAT | 1.83 |
| ACACGACTTT | 1.09 |
| ACACGCGGCA | 1.06 |
| ACACGCTACG | 1.53 |
| ACACGCTGCG | 1.02 |
| ACACGTACT | 1.66 |
| ACACGTCTGC | 1.15 |
| ACACGTGCTG | 1.03 |
| ACACTAAGGC | 1.07 |
| ACACTAAGGG | 1.05 |
| ACACTAGGCA | 1.07 |
| ACACTGAATA | 1.05 |
| ACACTGTAAT | 1.13 |

| Sequence | switch fluorescence ratio |
| --- | --- |
| ACACTTCGAC | 1.1 |
| ACACTTGGGC | 1.01 |
| ACAGAACGTT | 1.13 |
| ACAGAATGGA | 1.03 |
| ACAGACAGAT | 1.07 |
| ACAGAGTGGG | 1.03 |
| ACAGATTCGA | 0.96 |
| ACAGCAACGA | 1.22 |
| ACAGCGGCAC | 1.23 |
| ACAGCTTGCG | 1.09 |
| ACAGGATGTA | 1.05 |
| ACAGGCTG | 0.99 |
| ACAGGCTTCC | 2.2 |
| ACAGGGCGAT | 0.932 |
| ACAGTAACGC | 1.07 |
| ACAGTGCGTG | 0.985 |
| ACAGTGCTG | 1 |
| ACAGTGGACA | 1.01 |
| ACAGTGTCGA | 1.06 |
| ACAGTGTTAG | 1.02 |
| ACATAAGAC | 1.05 |
| ACATACGTTG | 1.29 |
| ACATACTAAT | 1.26 |
| ACATAGGGGG | 1.01 |
| ACATAGTCAA | 1.11 |
| ACATATAACC | 1.06 |

| Sequence | switch fluorescence ratio |
| --- | --- |
| ACATCCGGAA | 4.57 |
| ACATCGCCTC | 1.07 |
| ACATCGGGTA | 0.994 |
| ACATCGGTGC | 1.06 |
| ACATCGTTGT | 0.964 |
| ACATGACGCG | 0.953 |
| ACATGCTTAA | 1.01 |
| ACATGGACCT | 1.28 |
| ACATGGGGCA | 1.04 |
| ACATGGGTCG | 0.962 |
| ACATGGTACC | 1.07 |
| ACATGTAGGC | 1 |
| ACATTAATGG | 1.02 |
| ACATTACGGT | 1.44 |
| ACATTAGATA | 1.05 |
| ACATTATAT | 1.04 |
| ACATTCGCT | 1.02 |
| ACATTTAGCA | 0.982 |
| ACATTTATAA | 1.01 |
